The subject of the experiment is Plasmodium falciparum. Briefly: Primary screen in NF54 nanoGlo assay, in single point, at 2uM, 72h; a lower Z score goes with more inhibition. The class given is functional, Erythrocyte. The conditions noted are these: timepoint 72 hour.

Where “and” joins values, the source holds several entries; their conditions need not be identical. Equal entries are not always repeated. Hit rate of the full screen: of about 150,000 compounds, about 540 (0.36%) showed an effect of 50% or more. This is one part of the list.

Usually % Inhibition stands for the drop in the measured response relative to a control, in per cent. Consider `O=C(CCc1nc([C@@H]2CCCN2Cc2ccc3[nH]ccc3c2)no1)N1CCCC1`, for which the “% Inhibition” value is -20% and the Z score was 2.34.

Regarding `Cc1cnc(C2CCOCC2)n1CC1CCN(C(=O)c2cccs2)CC1`, the “% Inhibition” value is given as -4% and the Z score was determined as 0.55.

Take `CCC(CC)(CNC(=O)C1C[C@H]2C[C@@H](N)[C@H]2C1)C(F)(F)F` (some centres undefined): the “% Inhibition” value was -2% and the Z score is on record as 0.24.

Take `CN(C(=O)C(F)(F)F)c1ccc(-c2nnc(NC(=O)c3ccc(Cl)cc3)s2)cc1`: the “% Inhibition” value was 8% and the Z score is -1.11.

On to `CC(=O)N1CCc2sc(S(=O)(=O)Nc3cccc(Cl)c3C)cc2C1`, for which the “% Inhibition” value turned out to be 10% and the Z score is -1.94.

Consider `COc1ccc2c(c1)N(C(=O)c1cccc(C(=O)O)n1)CCCC2`, for which the “% Inhibition” value was -2% and the Z score came out at 0.26.

For the compound `CC(C)[C@@H](CO)NC(=O)Nc1nccc(C(C)(C)C)n1`, the “% Inhibition” value is -9% and the Z score came to 1.14.

Turning to `O=C(CCc1cc2n(n1)CCNC2)NC[C@H](O)c1cc2ccccc2s1`, the “% Inhibition” value is given as 6% and the Z score is on record as -0.78.

Consider `CN(C[C@H]1COCCO1)C(=O)c1ccc(-c2ccc3c(=O)[nH]ccc3c2)cc1`, for which the “% Inhibition” value is -2% and the Z score stood at 0.28.

`O=C(NCC1CCCN(C(=O)C2CC3CCC2C3)C1)Nc1cccc(F)c1` (centres undefined): the “% Inhibition” value amounted to 36% and the Z score is given as -5.18.

Regarding `Cc1cccc(OCC(O)CN2CCC(c3ccccc3)C2)c1` (centres undefined), the “% Inhibition” value is reported as -2% and the Z score worked out at 0.32.

Turning to `Cc1ccc(NC(=O)C(F)(F)F)cc1Cl`, the “% Inhibition” value is given as -37% and the Z score is on record as 4.39.

Regarding `CCOc1nnc(CN2CCC[C@@H]2Cn2cncn2)s1`, the “% Inhibition” value is on record as -6% and the Z score came out at 1.19.

In the case of `O=C(c1ccc2[nH]ccc2c1)N1CCC(N2CC3(CCCCC3)[C@H]2c2ccccc2)CC1`, the “% Inhibition” value was determined as 0% and the Z score was -0.02.

With `COc1ccccc1NC(=O)C(=O)c1cccn1Cc1ccc(C)c(C)c1`, the “% Inhibition” value was -7% and the Z score is 0.83.

`Cn1nccc1C1(O)CCN(C(=O)OCC(F)(F)F)CC1`: the “% Inhibition” value is recorded as -14% and the Z score is 2.63.

For `C#CCN(Cc1noc(C2CC2)n1)S(C)(=O)=O`, the “% Inhibition” value is reported as -7% and the Z score worked out at 1.43.

As for `COc1ccc(CNC(=O)N2CC[C@H](n3c(=O)n(C)c4cccnc43)C2)cc1`, the “% Inhibition” value worked out at 4% and the Z score is -0.5.

In the case of `c1cc(Cn2cccn2)cc(-c2nccn2C[C@H]2COCCO2)c1`, the “% Inhibition” value was 4% and the Z score is -0.58.

As for `Cc1ccc(-n2cc3c(c2-c2ccccc2)c(=O)n(-c2ccccc2)n3C)cc1`, the “% Inhibition” value was -2% and the Z score was 0.25.

With `COc1ccccc1N(C)Cc1c(C)noc1C`, the “% Inhibition” value is recorded as 7% and the Z score is -0.98.

Take `C=CC[C@@H]1N(C(=O)c2ccc(S(N)(=O)=O)cn2)CCCC1(C)C`: the “% Inhibition” value is listed as -6% and the Z score is 0.97.

Take `Cc1cccc(CC(=O)N2C[C@@H](CN3CCCCC3)[C@@H](CO)C2)c1`: the “% Inhibition” value is listed as -12% and the Z score was determined as 1.83.

Regarding `COc1ccc(-n2cc3ccccc3c2C)cc1`, the “% Inhibition” value is reported as -37% and the Z score was found to be 4.3.

`O=C1C[C@H](c2ccc(O)cc2)c2c(n(C3CCCCCCC3)[nH]c2=O)N1`: the “% Inhibition” value was -7% and the Z score stood at 0.86.

On to `CC(C)CN1CCCN(Cc2[nH]c3ccccc3c2Cl)CC1`, for which the “% Inhibition” value came out at 5% and the Z score is reported as -0.73.

As for `CCCCC(=O)NS(=O)(=O)Cc1cc(Cl)ccc1F`, the “% Inhibition” value is -7% and the Z score worked out at 0.99.

Take `COc1ccc(-n2c(=O)c3ccccc3n(CC(=O)NC3CCCC3)c2=O)cc1OC`: the “% Inhibition” value is listed as -8% and the Z score was 1.08.

As to `CCC1(CC)CCN(C(=O)c2cc(CN3CCC[C@H](O)C3)on2)C1`, the “% Inhibition” value was -10% and the Z score was 1.73.

On to `Cc1ccccc1C(=O)N(Cc1ccc(F)cc1)c1cccc(CC(=O)NC[C@H]2CCCO2)c1`, for which the “% Inhibition” value was 1% and the Z score is listed as -0.14.

Consider `O=C(C1C2C(=O)N(Cc3cccnc3)C[C@@]23C=C[C@@H]1O3)N1CCC(F)(F)CC1` (some centres undefined), for which the “% Inhibition” value was -7% and the Z score is 0.93.

As for `COc1ccc(-c2nccc(N(C)C)n2)c(OC)c1OC`, the “% Inhibition” value is 3% and the Z score is -0.44.

For `CN1C(=O)c2cc(NC(=O)C3CCCCC3)ccc2Oc2ncccc21`, the “% Inhibition” value is listed as -17% and the Z score is reported as 1.85.

`O=C1N=C(c2ccc(F)cc2)N[C@H]2CCN(C(=O)Cc3ccccc3)C[C@H]12`: the “% Inhibition” value is -2% and the Z score was determined as 0.24.

As for `COc1ccc(CCNC(=O)CN2CCN(c3nccnc3C#N)CC2)cc1`, the “% Inhibition” value is on record as -9% and the Z score is listed as 1.05.

Consider `O=C(NC1CC1)c1cccc(NS(=O)(=O)c2ccc(F)cc2F)c1`, for which the “% Inhibition” value turned out to be 3% and the Z score is -0.36.

For the compound `CCn1nc(C)c(CNc2nnc(CC3CCCC3)o2)c1C`, the “% Inhibition” value was -4% and the Z score came to 0.41.

`CN(CCN1CCCC1=O)C(=O)c1ccc(F)cc1OC(F)F`: the “% Inhibition” value was -3% and the Z score is 0.54.

On to `O=C1c2ccccc2N=C(O)[C@@H]2CCCCN12`, for which, for the setting “2 µM”, the “% Inhibition” value was -3% and -4%; the Z score was 0.53 and 0.49.

On to `c1ccc(Oc2cccc(CN3CCC(N4CCCCCC4)CC3)c2)cc1`, for which the “% Inhibition” value came out at 2% and the Z score is listed as -0.38.

Regarding `CC(C)(C)OC(=O)N1CCC(C2(O)CCCC2)CC1`, the “% Inhibition” value was -3% and the Z score is 0.38.

Take `Cn1cncc1-c1c(-c2ccccc2)ncn1[C@H](CO)COCc1ccccc1`: the “% Inhibition” value was -3% and the Z score was 0.57.
